# Assay results published in PubChem BioAssay AID463173 (ICCB-Longwood Screening Facility, Harvard Medical School, 2010).
# Screen size: about 52,000 compounds; about 1,700 (3.3%) were called active. Cut-off read from the data, not from the text of the source: active = survival mostly below about 52% (no sharp cut-off); inactive = mostly above about 56%. This is one part of the list.
# System: Wild type
# Test: S. aureus survival, RN4220 and DeltatarO strains – OD600, teichoic acid synthesis inhibitors, primary screen (AID 463173)
# Conditions: S. aureus RN4220 wild type/DeltatarO growth, OD600, 18 h, stronger effect = lower value, screened at 18.75 µg/mL (by protocol)
row,Compound,survival
1,CC(C)c1cnc2c(c1SCc1cccc(F)c1)c(=O)n(C)c(=O)n2C,inactive: 74%
2,CC(=O)c1ccc(NC(=O)c2nc(-c3ccccc3)n(-c3ccc(Cl)cc3)n2)cc1,inactive: 47%
3,CCOc1ccc(NC(=O)Cn2c(=O)n(Cc3nc(-c4ccccc4)no3)c(=O)c3cc4c(cc32)OCO4)cc1,inactive: 80%
4,Cc1nc2nc(NC(=O)C(C)(C)C)[nH]n2c(=O)c1Cc1ccccc1,inactive: 112%
5,CN1CCN(CCC(=O)Nc2cccc(F)c2)CC1,inactive: 111%
6,CCOC(=O)c1cc2c(=O)n3ccccc3nc2n(CCOC)c1=NC(=O)C(C)(C)Oc1ccc(Cl)cc1,inactive: 63%
7,Cc1ccc(Cn2ccn(CC(=O)Nc3c(C)cc(C)cc3C)c(=O)c2=O)cc1,inactive: 85%
8,CCCCN(C)CCCNC(=O)Cn1ncc2c3ccccc3n(Cc3ccccc3F)c2c1=O,inactive: 90%
9,Cc1noc(-c2ccc(N3CCC(C)CC3)c([N+](=O)[O-])c2)n1,inactive: 88%
10,CC(O)/C=C/c1ccncc1 (stereo unspecified),inactive: 95%
11,O=C(CSC1=Nc2ccccc2C2=NC(Cc3ccccc3)C(=O)N12)Nc1ccccc1C(F)(F)F (stereo unspecified),inactive: 88%
12,COc1cc(NC(=O)C2CCN(S(=O)(=O)c3ccc4c(c3)oc(=O)n4C)CC2)cc(OC)c1,inactive: 88%
13,COc1ccc(NS(=O)(=O)c2cc3c(cc2C)NC(=O)CO3)c(OC)c1,inactive: 85%
14,Cc1cccc(CNC(=O)c2oc3c(c2C)-c2nn(Cc4cccc(Cl)c4)cc2CC3)c1,inactive: 123%
15,Cc1cn2c(=O)cc(COc3ccccc3NC(=O)c3ccc(C(C)(C)C)cc3)nc2s1,inactive: 84%
16,COC(=O)c1ccc2c(c1)N(CC(=O)Nc1cccc(Cl)c1C)C(=O)c1ccccc1S2,inactive: 71%
17,CC(C)NC(=O)Cn1c(=O)nc(-c2ccccc2F)c2cc(Cl)ccc21,inactive: 73%
18,CCOc1ccc(CN2C(=O)c3ccccc3Sc3ccc(C(=O)NC)cc32)cc1,inactive: 78%
19,COC(=O)c1c(NC(=O)c2nc(SCc3cccc(C)c3)ncc2Cl)sc2c1CCCC2,inactive: 120%
20,COc1ccc(-n2nnc(-c3nc(-c4cccs4)no3)c2N)cc1OC,inactive: 100%
21,CC(=O)N1CCCC1c1nc2ccccc2n1Cc1cccc(Cl)c1 (stereo unspecified),inactive: 84%
22,CCc1ccc(CNC(=O)COc2cc(=O)n(CC)c3ccccc23)cc1,inactive: 51%
23,Cc1ccc(-c2noc(-c3ccc(NCc4ccco4)c([N+](=O)[O-])c3)n2)cc1,inactive: 104%

row,Compound,survival
1,COc1cc(NC(=O)CC(c2ccc(C)cc2)N2Cc3ccccc3C2=O)cc(OC)c1 (stereo unspecified),inactive: 60%
2,COc1ccc(C(=O)Nc2ccc(NC(=O)c3ccco3)cc2)cc1OC,inactive: 107%
3,COc1ccc(-c2nc(C)c(CCNC(=O)C(=O)Nc3ccccc3C#N)s2)cc1OC,inactive: 63%
4,COc1cc(C2CC(=O)c3c([nH]c(C(=O)OCC4CCCCC4)c3C)C2)cc(OC)c1OC (stereo unspecified),inactive: 108%
5,COc1ccc(S(=O)(=O)C(C)(C)C)cc1,inactive: 92%
6,CCc1nn2c(=O)cc(COC(=O)c3ccc(NC(=O)c4cccs4)cc3)nc2s1,inactive: 70%
7,COc1ccccc1C(=O)Nc1nc2nc(-c3ccccc3)cc(=O)n2[nH]1,inactive: 92%
8,Cc1ccccc1NS(=O)(=O)c1ccc2[nH]cc(C(=O)NC(C)c3ccccc3)c(=O)c2c1 (stereo unspecified),inactive: 73%
9,COc1ccc(Nc2nnc(-c3cc4c(ccc5ccccc54)oc3=O)s2)cc1,inactive: 74%
10,COc1ccccc1CCNC(=O)C(=O)NCC(c1cccs1)S(=O)(=O)c1ccc(C)cc1 (stereo unspecified),inactive: 86%
11,Cc1ccc(C)c(CNC(=O)C2CCN(c3nc4ccccc4nc3C(F)(F)F)CC2)c1,inactive: 88%
12,CCOc1ccccc1CNC(=O)Cn1ncn2nc(-c3cccs3)cc2c1=O,inactive: 93%
13,O=C1C(=O)N(C2CCN(C(=O)c3ccc(Cl)cc3)CC2)CCN1Cc1ccc(F)cc1,inactive: 70%
14,CCN1CCN(CCC(=O)Nc2ccc3c(c2)CCC3)CC1,inactive: 103%
15,CCN(CC)CCCNC(=O)c1ccc2nc(N3CCCCC3)sc2c1,inactive: 72%
16,CCNC(=O)c1ccc2nc(CCc3ccccc3)oc2c1,inactive: 74%
17,Cc1cc(Nc2ccccc2C)nc(-n2nc(C)cc2C)n1,inactive: 59%
18,COc1ccc(CCNC(=O)c2cc(C)nc3c2c(C)nn3-c2ccc(C)cc2)cc1OC,inactive: 81%
19,Cc1n[nH]c(C)c1S(=O)(=O)N1CCCC(C(=O)Nc2ccc(Br)cc2)C1 (stereo unspecified),inactive: 128%
20,O=C1c2ccccc2C(=O)N1COc1cccc2cccnc12,inactive: 101%
21,CCOc1ccccc1C(=O)N(Cc1cc(OC)c(OC)c(OC)c1)C1CCS(=O)(=O)C1 (stereo unspecified),inactive: 82%
22,O=C(CN1CCSc2ccccc21)NCc1ccccc1F,inactive: 100%
23,CCCN(C(=O)c1cn(C)c(=O)c2ccccc12)c1ccccc1C,inactive: 97%

row,Compound,survival
1,COc1ccc2nc(N(Cc3cccnc3)C(=O)C3COc4ccccc4O3)sc2c1 (stereo unspecified),inactive: 80%
2,CCOc1ccccc1CN1CCc2nc(N3CCN(c4ccccc4F)CC3)ncc2C1,active: -6%
3,CCCOc1ccc(CN(C(=O)c2cc(=O)c3ccc(C)cc3o2)C2CCS(=O)(=O)C2)cc1 (stereo unspecified),inactive: 75%
4,COc1ccc(N2CCN(S(=O)(=O)CCNC(=O)C3CC(=O)N(c4ccccc4)C3)CC2)cc1 (stereo unspecified),inactive: 73%
5,Cc1nc(CC(=O)Nc2cc(Cl)ccc2C)cs1,inactive: 85%
6,COc1cc(C)ccc1OCCSc1nc(-c2cccc(C)c2)nc2cc(=O)[nH]n12,inactive: 88%
7,COc1cccc(C(=O)CC2(O)C(=O)Nc3ccc(Cl)cc32)c1 (stereo unspecified),inactive: 120%
8,CCOC(=O)c1ccc(C(=O)OCC)nc1,inactive: 106%
9,CCOc1ccc(NC(=O)CSc2nc3c(c(=O)[nH]2)CCCC3)cc1,inactive: 86%
10,COc1ccc(C)cc1NC(=O)COCc1cc(-c2cccs2)on1,inactive: 73%
11,CCOc1ccc(-c2cc(C#N)on2)cc1,inactive: 97%
12,Cc1ccc(N(C)C(=O)Cn2cnc3onc(-c4ccc(F)cc4)c3c2=O)cc1C,inactive: 73%
13,O=C(Nc1ccccc1)c1cnc[nH]1,inactive: 112%
14,COc1cc(C2c3c(oc4ccc(F)cc4c3=O)C(=O)N2c2nc(C)c(C)s2)cc(OC)c1OC (stereo unspecified),inactive: 132%
15,O=C(CCS(=O)(=O)c1cc(Br)cc2c1N(C(=O)C1CC1)CC2)N1CCN(c2ccc(F)cc2)CC1,inactive: 75%
16,O=C1CCC(=O)N1c1ccccc1,inactive: 103%
17,Cc1cc2cc(C#N)c(N3CCOCC3)nc2cc1Cl,inactive: 105%
18,COc1ccc(CCNC(=O)CCCn2c(=O)c3ccccc3n(Cc3ccc(C)cc3)c2=O)cc1OC,inactive: 92%
19,Cc1ccc2ncc(C(=O)NCCc3ccc(S(N)(=O)=O)cc3)c(=O)n2c1,inactive: 93%
20,Cc1nn2c(C)c(C(=O)N3CCN(c4ccccc4)CC3)cnc2c1-c1ccccc1,inactive: 73%
21,Cc1ccc(CCNC(=O)c2cc3c(=O)oc4ccccc4c3s2)cc1,inactive: 73%
22,O=C(c1csc(Nc2ccccc2Cl)n1)N1CCCC1,inactive: 112%
23,COc1ccccc1OCCn1c(COc2cc(C)ccc2C)nc2ccccc21,inactive: 87%

row,Compound,survival
1,CCOc1ccccc1Nc1sc(C(=O)c2ccccc2)c(N)c1C(=O)NCCc1ccccc1,inactive: 124%
2,O=C(c1ccc(Cl)cc1)N(Cc1ccco1)Cc1ccco1,inactive: 102%
3,COc1cccc(CNC(=O)CNS(=O)(=O)c2ccc3nc(C)sc3c2)c1,inactive: 79%
4,CC(C)/C=N/NC(=O)c1ccccc1,inactive: 109%
5,COc1cc(NC(=O)CSc2nc3ccccc3nc2Cc2ccccc2OC)cc(OC)c1,inactive: 66%
6,C/C(=N\Nc1nc2sc3c(c2c2ncnn12)CC(C)(C)OC3)C(=O)O,inactive: 102%
7,COc1ccc(NC(=O)Cn2c(=O)n(CC3CCCO3)c(=O)c3ccccc32)c(OC)c1 (stereo unspecified),inactive: 86%
8,COc1cc(OC)cc(C(=O)Nc2ccc3oc(-c4ccccc4C)nc3c2)c1,inactive: 55%
9,CCC(=O)Nc1ccc(C)cc1-c1nc2ccccc2n(CC(=O)Nc2ccccc2Cl)c1=O,inactive: 107%
10,CC(C)CNc1nc(NC(C)(C)C)nc(Oc2ccc(=O)n(-c3ccccc3)n2)n1,inactive: 84%
11,Cc1ccccc1NC(=O)c1c(C)oc2ccc(O)c(CN3CCCC3)c12,inactive: 89%
12,CCN(CC)S(=O)(=O)c1nnc(NC(=O)c2ccccc2Cl)s1,inactive: 69%
13,COc1cccc(-c2cc(C(=O)Nc3cc(C)nn3-c3ccccc3)no2)c1,inactive: 89%
14,Cc1ccc(C)c2sc(NC(=O)c3ccc(S(=O)(=O)N4CCCC4)cc3)nc12,inactive: 19%
15,O=C(c1cc2ccc3cccnc3c2[nH]1)N1CCN(c2cccc(C(F)(F)F)c2)CC1,active: -2%
16,Cc1ccc(NC(=O)c2oc3ccc(S(=O)(=O)N4CCCCC4)cc3c2C)cc1C,inactive: 77%
17,COc1ccc2c(c1)c1c(c(=O)n(CCc3ccccc3)c(=O)n1Cc1ccccc1)n2C,inactive: 57%
18,COc1ccc(-c2cc(C(F)(F)F)nc(SCC(=O)N(C)Cc3ccccc3)n2)cc1OC,inactive: 45%
19,CCOc1ccc(CNC(=O)c2ccc3c(c2)nc2n3CCOC2)cc1,inactive: 57%
20,CC(=O)N1CCOc2cc(S(=O)(=O)NCc3ccc(C)cc3)c(C)cc21,inactive: 81%
21,CCN1CCN(CCCNC(=O)c2cc3c(=O)n(CC)c4ccccc4c3s2)CC1,inactive: 85%
22,Cc1c(CNCc2ccc(OC(C)C)cc2)c(C(=O)O)c(C)n1Cc1ccc(Cl)cc1,inactive: 122%
